Measured values reported in PubChem BioAssay AID1463 (National Center for Advancing Translational Sciences (NCATS), 2008).
In all, about 280,000 compounds went through this assay and about 2,600 (0.93%) were called active. Roughly 8% stayed inconclusive and do not appear here. The call rests on the fitted dose curve; in most records, active means well fitted curve in the direction sought with a large enough effect; inconclusive means small, poorly fitted or top-dose-only effect; inactive means flat fitted curve, though single readings scatter. The list shows a part of the results, in another mix than the full data.

assay: Counterscreen qHTS for Inhibitors of Tau Fibril Formation, Fluorescence Polarization; conditions: tau K18 P301L (four-repeat tau fragment) Alexa594 fluorescence, heparin fibrillization; series mostly up to 57.7 µM; activity change, negative = decrease: at the top concentration; further: nearly all actives have a fitted effect of over 55% in size
Text: NIH Molecular Libraries Probe Production Network [MLPCN]
NIH Chemical Genomics Center [NCGC]
Assay Provider: Carlo Ballatore, University of Pennsylvania
The microtubule-associated protein tau is an abundant protein in the axons of neurons that stabilizes microtubules. With its ability to modulate microtubule dynamics, tau contributes directly or indirectly, to key structural and regulatory cellular functions. Particularly important is the influence tau exerts on axonal transport, which allows signaling molecules, trophic factors and other essential cellular constituents to travel along the axons. Under pathological conditions, tau becomes sequestered into insoluble aggregates called neurofibrillary tangles. This phenomenon is believed to have pathological consequences by promoting axonal transport deficits that ultimately lead to synaptic dysfunction and neuronal loss. To identify inhibitors of tau aggregation, a heparin-induced tau fibril formation assay was used that employed a recombinantly expressed fragment of tau, K18 (Q242-E372), bearing a P301L mutation (Gustke et al. 1994; Hong et al. 1998). […] Total fluorescence (555 nm excitation and 632 nm emission) was measured to identify fluorescent or absorbent compounds at this wavelength. Such compounds may be artifacts that interfere with the Alexa 594 Tau fluorescence polarization assay.
Gustke, N., B. Trinczek, et al. (1994). "Domains of tau protein and interactions with microtubules." Biochemistry 33(32): 9511-22.
Hong, M., V. Zhukareva, et al. (1998).
Li, W. and V. M. Lee (2006). "Characterization of two VQIXXK motifs for tau fibrillization in vitro." Biochemistry 45(51): 15692-701.
von Bergen, M., S. Barghorn, et al. (2001). "Mutations of tau protein in frontotemporal dementia promote aggregation of paired helical filaments by enhancing local beta-structure." J Biol Chem 276(51): 48165-74.
NCGC Assay Protocol Summary:
For screening, 2 uL/well human K18 P301L (15 uM unlabeled and 0.24 uM Alexa 594-labeled tau final concentrations) in reagent buffer (100 mM sodium acetate pH 7) was dispensed into black solid 1536-well plates (Grenier) using a solenoid-based dispenser. Following transfer of 23 nL compound or DMSO vehicle by a pin tool, 2 uL/well heparin (20 uM final concentration) in reagent buffer was added and the plate centrifuged 15 s at 1000 RPM. Plates were incubated 6 hr at 37 C and then 1 uL/well ThT (30 uM final concentration) was added. After a 1 hr ambient incubation, the plates were read by an Envision (Perkin Elmer) to monitor Alexa 594 FP (555 nm excitation and 632 nm emission).
Keywords: NIH Roadmap, MLPCN, MLI, MLSMR, NCGC, qHTS, tau, tauopathies, Alzheimer's disease, fibril, neurodegeneration, aggregation
On the % scale 0 is the no-effect control and ±100 the full control effect; potency means the concentration at half of the fitted maximal effect; tags describe the fitted curve by direction and shape or compound fluorescence and quenching.

SMILES	activity change, negative = decrease	Potency
C[C@H]1CCC[C@]2(O[C@@H](CCO)C[C@H](O)[C@H]2O)O1	inactive: -13.5%	–
CN1CCN(CCCN2c3ccccc3Sc3ccc(C(F)(F)F)cc32)CC1	–	inactive
COC(=O)Nc1nc2ccc(C(=O)c3cccs3)cc2[nH]1	–	inactive
C=CCCC(=O)Nc1nc(C)c(-c2csc(Nc3ccccc3OC)n2)s1	–	active: 12.6 µM [quencher]
CC(C)Cn1c(N)c(C(=O)COC(=O)c2cc(-c3ccco3)nc3ccccc23)c(=O)n(C)c1=O	inactive: -24.6%	–
CCN(CC)c1ccc(/C=N/Nc2nc3ccccc3[nH]2)c(O)c1	–	active: 17.8 µM [quencher]
COc1cccc([C@@H]2Oc3ccc(OC)cc3C(=O)[C@H]2OC(=O)Nc2cc(OC)c(OC)c(OC)c2)c1	inactive: -22.7%	–
O=C(/C=C/c1ccc2c(c1)OCO2)c1ccc(F)cc1	inactive: -11%	–
CCCc1c(-c2ccc(O)cc2)nn(-c2ccc(O)cc2)c1-c1ccc(O)cc1	inactive: -34.5%	–
CCOc1ccc(NC(=O)Cn2cc(C(=O)c3ccco3)c3ccccc32)cc1	inactive: -28.5%	–
Cc1ccc(NC(=S)N/N=C/c2ccc([N+](=O)[O-])s2)cc1	–	active: 15.8 µM [quencher]
CC(=O)c1cccc(N=Nc2c(C)[nH]c3ccccc23)c1	–	active: 14.1 µM [quencher]
COc1ccc(NCc2cc3cc4c(cc3n(CC(=O)Nc3ccc(F)cc3)c2=O)OCCO4)cc1	–	active: 11.2 µM [quencher]
CC(C)(C)c1ccc(C(=O)NCCC(=O)NCc2ccco2)cc1	–	active: 14.1 µM [quencher]
CCOC(=O)Cc1csc(NC(=O)/C=C\c2ccccc2Cl)n1	inactive: -28.6%	–
COc1ccccc1OCCn1cc(/C=N/NC(=O)c2ccncc2)c2ccccc21	–	active: 12.6 µM [quencher]
CCN1CC2=C(OC(N)=C(C#N)C2c2cccs2)/C(=C/c2cccs2)C1 (configuration not stated)	inactive: -25.1%	–
O=[N+]([O-])c1cc(/C=N\Nc2nc(-c3ccccc3)cs2)ccc1O	–	active: 10 µM [quencher]
COc1ccc(-c2[nH]c3ccccc3c2SCCNC(=O)c2ccc(S(=O)(=O)N(C)C)cc2)cc1	–	active: 3.98 µM [quencher]

SMILES	activity change, negative = decrease	Potency
CCOc1ccc(NC(=S)N(CCc2c(C)[nH]c3ccccc23)Cc2ccco2)cc1	–	active: 12.6 µM [quencher]
COc1cccc(-c2cc(=O)c3cc(NC(=O)c4ccc(N(C)C)cc4)ccc3[nH]2)c1	inactive: -9.36%	–
CCN(CC)c1ccc(NC(=O)Cn2ncc3c(C)n(Cc4ccccc4F)c(C)c3c2=O)c(C)c1	inactive: -6.43%	–
COc1cc(C2Oc3cc(C4Oc5cc(O)cc(O)c5C(=O)C4O)ccc3OC2CO)ccc1O (configuration not stated)	–	inactive
CCOc1ccc(NS(=O)(=O)c2ccc3[nH]c4c(c3c2)CCCCC4)cc1	–	active: 14.1 µM [quencher]
COc1ccc2c(c1)O[C@H](c1ccc3c(c1)OCO3)[C@@H](OC(=O)Nc1cc(OC)c(OC)c(OC)c1)C2=O	inactive: -17.2%	–
CCOC(=O)CN1C(c2ccc(O)cc2)Nc2ccc(Br)cc2C1c1ccccc1 (configuration not stated)	–	active: 7.08 µM [quencher]
Nc1nn(-c2ccccc2)nc1C(=O)OCc1ccccc1	inactive: -29.2%	–
COc1ccc(OC)c(/C=N/N(C)c2ccccc2)c1	–	active: 11.2 µM [quencher]
O=C(Nc1cccc(Cl)c1)OCCN1CCN(Cc2ccccc2)CCC1=O	inactive: -21.6%	–
CC1(C)CC(=O)c2c(oc3cc(O)c(O)cc23)C1	inactive: -29.7%	–
O=C(NCc1nc2ccccc2[nH]1)C1=C[C@H](c2csc3ccccc23)C[C@H](OCc2ccc(CO)cc2)O1	inactive: -27.5%	–
CCOC(=O)CSc1ncnc2c1c(-c1ccccc1)cn2-c1ccc(OC)cc1	inactive: -20.9%	–
O=C1CC(c2ccccc2)Oc2cc(O)cc(O)c21 (configuration not stated)	inactive: -7.91%	–
CCN(CC)C(=S)SSC(=S)N(CC)CC	–	inactive
C[C@@H](C(=O)NCCc1c[nH]c2ccccc12)[C@@H]1C[C@@]1(C)[C@@H](NC(=O)OCc1ccccc1)c1ccccc1	inactive: 8.66%	–
C[C@]12C[C@H](O)[C@H]3[C@@H](CCC4=CC(=O)CC[C@@]43C)[C@@H]1CC[C@@H]2C(=O)CO	inactive: -4.49%	–
Cc1ccc(NC(=O)c2cccc(N(C)C)c2)cc1NC(=O)c1ccc(O)cc1	inactive: -9.34%	–
O=C1CSc2ccc(C(=O)Nc3cccc(S(=O)(=O)Nc4ccc(Br)cc4)c3)cc2N1	–	active: 10 µM [quencher]

SMILES	activity change, negative = decrease	Potency
CCCCCCN1C=CC=C/C1=C/C=C(C#N)C#N	inactive: 5.62%	–
CC(C)NCC(O)c1ccc(O)c(O)c1 (configuration not stated)	–	inactive
C#C[C@]1(O)CC[C@H]2[C@@H]3CCc4cc(O)ccc4[C@H]3CC[C@@]21C	inactive: -15.5%	–
CC(C)CCNC(=O)CCC(=O)NNc1nc2ccccc2c2nc(-c3ccccc3)nn12	inactive: -20.5%	–
COC(=O)c1c(C)[nH]c(C)c1C(=O)c1ccccc1Cc1ccccc1	–	inactive
CSc1cccc(NC(=O)Cn2ncn3c(cc4ccccc43)c2=O)c1	–	active: 20 µM [quencher]
Cn1c(N)c(C(=O)COC(=O)c2cc(C3CC3)nc3ccccc23)c(=O)n(C)c1=O	inactive: -29.2%	–
O=c1[nH]c2cc(C(F)(F)F)ccc2n1-c1cc(C(F)(F)F)ccc1O	–	inactive
Cc1ccc(C(=O)N/C(=C/c2ccco2)C(=O)NCCc2c[nH]c3ccccc23)cc1	inactive: -10.1%	–
COc1ccc(-c2csc3nc(-c4ccccc4)oc(=O)c23)cc1OC	inactive: 5.23%	–
O=C(Nc1cccc2ccccc12)/C(=C/c1cccc([N+](=O)[O-])c1)NC(=O)c1cccs1	inactive: -29.8%	–
Oc1ccc(/C=N/N=C(c2ccccc2)c2ccccc2)c(O)c1O	–	active: 12.6 µM [quencher]
COc1ccc(NC(=O)c2ccc(-c3ccc([N+](=O)[O-])cc3)o2)cc1OC	–	active: 11.2 µM [quencher]
O=C(Nc1ccc(N2CCCC2)c(S(=O)(=O)Nc2cccc(C(F)(F)F)c2)c1)c1cccs1	–	active: 10 µM [quencher]
NC(Cc1cc(I)c(Oc2ccc(O)c(I)c2)c(I)c1)C(=O)O (configuration not stated)	inactive: -24.4%	–
COc1ccc([C@@H](C)C(=O)c2ccc(O)cc2O)cc1	inactive: -26.7%	–
c1ccc(-c2nc[nH]c2-c2ccccc2)cc1	inactive: -6.93%	–
Cc1ccc2c(c1)sc1nc(=O)n(-c3ccc(Cl)c(Cl)c3)c(=O)n12	inactive: -24.9%	–
O=c1oc2c(O)c(O)cc3c(=O)oc4c(O)c(O)cc1c4c23	inactive: -31%	–
